Measurements reported in PMC4336329 (PLoS ONE, 2015).
Among all 310,000 compounds or so, about 14,000 (4.5%) showed an effect of 50% or more. The effect is printed as a negative number. This is one part of the list.

target: human ether-à-go-go-related gene (hERG) potassium channel (human, UniProt Q12809); experiment: primary screen, population patch clamp on CHO cells stably expressing hERG
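Note: peak tail current of the secondary pulse compared with the same well before compound.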

Chain of human ether-à-go-go-related gene (hERG) potassium channel (Q12809 whole entry, looked up): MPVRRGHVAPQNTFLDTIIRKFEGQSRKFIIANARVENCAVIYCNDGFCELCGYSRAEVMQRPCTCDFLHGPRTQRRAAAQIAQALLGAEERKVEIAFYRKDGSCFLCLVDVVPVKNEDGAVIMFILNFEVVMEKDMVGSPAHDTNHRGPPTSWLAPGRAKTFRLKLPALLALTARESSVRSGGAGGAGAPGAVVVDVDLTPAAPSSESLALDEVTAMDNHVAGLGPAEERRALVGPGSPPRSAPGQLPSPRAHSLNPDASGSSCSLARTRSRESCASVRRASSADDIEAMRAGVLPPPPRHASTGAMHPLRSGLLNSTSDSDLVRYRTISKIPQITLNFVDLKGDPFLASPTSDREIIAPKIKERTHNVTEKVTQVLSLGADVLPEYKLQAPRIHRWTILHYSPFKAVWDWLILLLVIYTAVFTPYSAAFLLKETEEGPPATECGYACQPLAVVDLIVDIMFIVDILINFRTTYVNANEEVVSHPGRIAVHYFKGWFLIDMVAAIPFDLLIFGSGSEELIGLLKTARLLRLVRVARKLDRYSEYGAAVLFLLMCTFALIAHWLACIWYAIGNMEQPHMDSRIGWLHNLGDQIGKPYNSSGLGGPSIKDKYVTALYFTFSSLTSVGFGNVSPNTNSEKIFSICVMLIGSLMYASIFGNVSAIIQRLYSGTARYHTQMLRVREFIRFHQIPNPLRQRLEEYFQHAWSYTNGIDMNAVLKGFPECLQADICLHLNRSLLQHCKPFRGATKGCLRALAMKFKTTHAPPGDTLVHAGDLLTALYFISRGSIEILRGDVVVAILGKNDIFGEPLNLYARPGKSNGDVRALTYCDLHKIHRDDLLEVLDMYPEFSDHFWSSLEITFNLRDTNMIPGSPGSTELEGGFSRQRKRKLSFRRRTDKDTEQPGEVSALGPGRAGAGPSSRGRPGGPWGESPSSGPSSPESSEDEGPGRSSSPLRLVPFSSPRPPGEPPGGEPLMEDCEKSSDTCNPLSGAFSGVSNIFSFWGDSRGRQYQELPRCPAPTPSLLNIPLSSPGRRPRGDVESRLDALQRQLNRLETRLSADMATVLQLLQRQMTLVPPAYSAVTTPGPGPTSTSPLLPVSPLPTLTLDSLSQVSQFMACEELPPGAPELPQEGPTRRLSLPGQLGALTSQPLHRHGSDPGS

Row | Compound | hERG current change (%, negative = inhibition) at 10uM [%]
1 | CN(Cc1ccccn1)C(=O)C1CCC(=O)N(Cc2cccc(C(F)(F)F)c2)C1 (centres unmarked) | -15.7
2 | CCOc1ccccc1C(=O)Nc1cc(C(=O)NCC(C)C)ccc1Cl | 12
3 | CCOC(=O)Nc1ccc2c(c1)N(C(=O)N1CCN(C)CC1)c1ccccc1CC2.Cl | -16.7
4 | CCCCOc1ccc(-c2nnc(-c3cc[n+](C)cc3)o2)cc1.O=S(=O)([O-])c1ccccc1 | -18.3
5 | COc1ccc(S(=O)(=O)N(C)Cc2ccc3c(c2)OCCO3)cc1 | -13.6
6 | CCOc1ccc(CCNC(=O)COC(=O)c2ccc(OC)c(OC)c2OC)cc1OCC | 12.2
7 | CCOc1ccc(CCNC(=O)c2ccc(F)c(S(=O)(=O)N3CCOCC3)c2)cc1OCC | 2.34
8 | CCOc1ccc(-c2c(C(=O)N/N=C(\C)c3ccccc3OC)nnn2-c2nonc2N)cc1 | 23.5
9 | Cc1ccc(NC(=O)C(CC(=O)O)C2CCCO2)c(C)c1 (centres unmarked) | -13.7
10 | CC1(C)C(=O)Nc2ccccc2N1C(=O)COC(=O)COc1cccc(C(F)(F)F)c1 | -10
11 | Cc1ccc(S(=O)(=O)N2CC(=NN=C(N)N)C2)cc1 | 28.4
12 | Cc1ccc(NC(=O)C2CCCN(S(=O)(=O)c3cnc[nH]3)C2)c(Br)c1 (centres unmarked) | -6.61
13 | Cn1cc(CC(=O)Nc2cccc(C#N)c2)c2ccccc21 | -14
14 | C=CCn1c(C(CCCC)CC(O)COCCC)n[nH]c1=S (centres unmarked) | 8.6
15 | Cc1nnc(SCC(=O)N(C(C)C)C(C)C)nc1C | 12.3
16 | Fc1ccc(CSc2nc3ncc(Br)cc3[nH]2)cc1 | -0.963
17 | Cc1cccnc1CCNCc1c(C(=O)N2C[C@@H](C)O[C@@H](C)C2)nc2ccc(Cl)cn12 | -13.2
18 | Clc1ccc(N2CCN(c3ccnc(Cl)n3)CC2)cc1 | -28
19 | Cc1ccc(S(=O)(=O)N(CC(=O)Nc2cccnc2)c2ccccc2C)cc1 | -16.4
20 | O=C(/C=C/c1ccc(N2CCCCC2)c([N+](=O)[O-])c1)c1ccc(O)cc1 | 4.95
21 | COc1cc2[nH]c3c(N4CCC(C(N)=O)CC4)ncnc3c2cc1OC | 15.7
22 | Cn1cc(S(=O)(=O)Nc2ccc(Br)cc2F)c(=O)n(C)c1=O | 11.1

Row | Compound | hERG current change (%, negative = inhibition) at 10uM [%]
23 | CC1Sc2ccc(S(=O)(=O)N3CCC(C(=O)NCc4ccc(Cl)cc4)CC3)cc2NC1=O (centres unmarked) | -5.58
24 | O=C1NC(=O)C2(CCC(C(=O)O)C2)N1 (centres unmarked) | 19.3
25 | CC1CC(=O)c2cnc(NCc3ccco3)nc2C1 (centres unmarked) | 9.12
26 | Cc1cc(NC(=O)CSc2nnc(CNc3cccc(C(F)(F)F)c3)n2Cc2ccco2)no1 | -8.93
27 | Nc1ccccc1SCCS(=O)(=O)c1ccc(Cl)cc1 | 24.5
28 | Cc1ccccc1C(=O)Nc1ccnn1C1CCN(Cc2ccncc2)CC1 | -45.1
29 | COc1ccc(COC(=O)C2CCN(C(=O)c3ccc(Cl)cc3)CC2)cc1F | -52.2
30 | COc1ccc(S(=O)(=O)N2CCC(C(=O)NC3CC3)CC2)cc1C | 8.22
31 | O=C(CCc1nnc(Cc2ccc(-c3ccccc3)cc2)o1)N1CCCC1 | -13
32 | Cc1ccc(-n2c(SCC(=O)N(C)C)nnc2-c2ccco2)cc1 | 4.74
33 | CCCCOc1ccc(C(=O)N/C(=C/C=C/c2ccccc2)C(=O)N2CCOCC2)cc1 | -5.66
34 | COCCNC(=S)Nc1ccccc1Cc1ccccc1 | 1.69
35 | Cc1ccc(NC(=O)Cn2nnc(C(=O)NCCc3ccccc3)c2N)cc1Cl | 13.3
36 | CN1C(=O)CC(C(=O)O)SC1=Nc1ccc(F)cc1 (centres unmarked) | -14.5
37 | Cc1ccc([N+](=O)[O-])cc1NC(=O)C(C)NS(=O)(=O)c1ccc(F)cc1 (centres unmarked) | 7.08
38 | O=C(Oc1ccc(-c2cnc3ccccc3n2)cc1)c1ccco1 | 11.8
39 | Cc1cc(-c2cc(N)n(-c3ccccc3)n2)c(C)n1C1CCCC1 | -16.8
40 | COc1cc([N+](=O)[O-])ccc1NC(=O)CSc1nccn1C | 3.14
41 | COc1ccc(NC(=O)CN(C)C(=O)/C=C/c2cn(Cc3ccccc3)nc2-c2cccnc2)cc1 | -25.9
42 | O=C(CN(c1ccc(Cl)cc1)S(=O)(=O)c1ccc(Cl)c([N+](=O)[O-])c1)NCCc1ccc(F)cc1 | 5.16
43 | O=C(c1cc2c(s1)CCC2)N1C(=O)c2ccccc2S1(=O)=O | 12.9
44 | CCOC(=O)c1nc(N/N=C/c2ccccc2)sc1Br | 0.605

Row | Compound | hERG current change (%, negative = inhibition) at 10uM [%]
45 | CCCCC(=O)NC(c1ccco1)c1cc(Cl)c2cccnc2c1O (centres unmarked) | -31.6
46 | CC1CCc2sc(C(=O)N/N=C/c3ccc([N+](=O)[O-])cc3)cc2C1 (centres unmarked) | -1.2
47 | CCC(C)n1nccc1NC(=O)C(C)OC(=O)c1cc2ccccc2[nH]1 (centres unmarked) | -16.9
48 | COc1ccc(NC(=S)N(CCCN2CCOCC2)Cc2cn(C)c3ccccc23)cc1OC | -0.53
49 | CCC(=O)NNC(=S)NC(=O)c1ccc(C)cc1 | 22.4
50 | CC(C)C[C@H](NC(=O)c1[nH]cnc1C(=O)N[C@@H](Cc1ccccc1)C(=O)OCc1ccccc1)C(=O)OC(C)(C)C | -1.12
51 | Fc1ccc(COc2ccc(-c3nnco3)cc2)cc1 | -2.32
52 | CCCOc1ccc(C(=O)NNC(=O)CCNC(=O)c2ccccc2Cl)cc1OC | -7.19
53 | O=C(CNS(=O)(=O)c1ccc(Br)cc1)OCc1cc(=O)n2cc(Br)ccc2n1 | -26
54 | Cc1nc2sc(C(=O)Nc3ccccc3)c(N)c2c(C)c1[N+](=O)[O-] | -6.05
55 | CS(=O)(=O)c1ccc(Cl)c(NC(=O)COC(=O)c2cccc(S(=O)(=O)N3CCCCC3)c2)c1 | -30.9
56 | O=C(OCc1ccc([N+](=O)[O-])cc1)C1CC(=O)N(CCc2ccccc2)C1 (centres unmarked) | -69.4
57 | O=C(CSc1ccccc1)Nc1nnc(C2CC2)s1 | 16.9
58 | O=c1[nH]c(O)c(N=Nc2cccc(S(=O)(=O)N3CCOCC3)c2)c(=O)[nH]1 | -73.7
59 | N/C(=N\OC(=O)Cc1ccccc1[N+](=O)[O-])c1ccc(Br)cc1 | 26.1
60 | COCC(=O)N(Cc1ccc(OC)cc1)Cc1nc2ccccc2c(=O)[nH]1 | 8.13
61 | CC(Oc1ccccc1)C(=O)OCC(=O)NC(=O)NC1CCCCC1 (centres unmarked) | 3.72
62 | NC(=NC(=O)c1ccc(Cl)cc1)N1N=CCC1c1ccccc1 (centres unmarked) | 10.6
63 | COc1ccccc1NC(=O)COC(=O)c1ccccc1OCC(=O)Nc1ccc(SC(F)F)cc1 | 1.67
64 | O=S(=O)(Nc1ccc2cn[nH]c2c1)c1ccc(Cl)s1 | 21.4
65 | CSc1ccccc1NC(=O)CN(C)C(=O)c1ccc2c(c1)OCCO2 | 5.66
66 | COc1cccc(/C=C2\N=C(c3cncc(Br)c3)OC2=O)c1 | 11.8

Row | Compound | hERG current change (%, negative = inhibition) at 10uM [%]
67 | CC(C)(C)NC(=O)c1ccncc1 | 7.71
68 | CCc1ncc(C)nc1CC | 12.5
69 | C/C(=C\C(=O)c1ccccc1)Nc1ccc(N2CCOCC2)cc1 | 14.7
70 | O=S(=O)(c1ccc(OCc2ccc(Br)cc2)cc1)N1CCOCC1 | -1.14
71 | O=C(NCCc1ccc(Cl)cc1)C1CCC(=O)N1Cc1ccc(F)cc1 (centres unmarked) | -11.8
72 | OCC1(Cc2ccc(F)cc2F)CCCN(Cc2ccc(Cl)cc2)C1 (centres unmarked) | -74.6
73 | COc1ccc(C[C@H]2CN3C(=NC[C@@H]3Cc3ccccc3)N2CCNC(=O)c2ccc(C)c(Br)c2)cc1 | -74
74 | COc1ccc(S(=O)(=O)N2CCCC2CNC(=O)C(=O)NC2CCCCCC2)cc1 (centres unmarked) | -45.6
75 | COc1ccc(C(O)P(=O)(OCC(C)C)OCC(C)C)c(OC)c1 (centres unmarked) | 25.7
76 | COC(=O)CN1C(=S)N(c2ccccc2)C(=O)C1CC(=O)Nc1ccc(Cl)cc1 (centres unmarked) | 9.22
77 | CCOc1ccc(-c2nc(CSCC(=O)NCC3CCCO3)c(C)o2)cc1 (centres unmarked) | -1.16
78 | COc1cccc(CCNCc2c(F)cccc2F)c1.O=C(O)C(=O)O | -15.1
79 | O=c1onc(-c2ccc(Cl)cc2)n1Cc1ccc(F)cc1 | -15.8
80 | CCOC(=O)C1=C(C)N(CCCC(=O)O)C(=O)NC1C(CC)CC (centres unmarked) | 13
81 | CCn1c(SCC(=O)Nc2nc(-c3ccccc3)cs2)nnc1-c1ccccc1O | -20.8
82 | Cc1cccc(C)c1OCC(=O)Nn1c(=O)[nH]c2ccccc2c1=O | 7.16
83 | O=c1c2ccccc2n2c(-c3cccc(F)c3)nnc2n1Cc1ccccc1 | 13.3
84 | Cc1c(CNC2CCC(C)CC2)c(C(=O)O)c(C)n1Cc1ccccc1 (centres unmarked) | -5.2
85 | COc1cc(C(=O)NC(=S)Nc2ccc(Cl)cn2)cc(OC)c1OC | -0.746
86 | CCCCCCOc1ccc(OCC(O)CN2C(=O)NC(C)(C)C2=O)cc1 (centres unmarked) | 12.1
